# Data taken from publication PMC12136788.
# The other results are listed elsewhere or left out.
# B1: chr1:150648406:150648517:-|CDS|ENSG00000143457|unk|FALSE|unique (ssRNA)
# RNA: GGGAGUUCUACAGUCCGACGAUCUCAGCGUAUGGACAAGCGAACACUAGCACUCCUGGUGCUAGCCCACUCCUCUGAUGUGCUAGAGAAUGUCUUCUCCUCUCUGACAGAUGACAAGUAUGAUGUGGCAAUGAAUCGAGCCAACAACAGAGGAUUGAGCAUCA
# B2: ENSG00000134323:stop:overlap|stop_codon|ENSG00000134323|stop_codon|NA|stop_codon (ssRNA)
# RNA: GGGAGUUCUACAGUCCGACGAUCAAAAAUUGCAGGCAAGACAGCAGCAGUUGCUAAAGAAAAUUGAACACGCUCGGACUUGCUAGACGCUUCUCAAAACUGGACAGUCACUGCCACUUUGCACAUUUUGAUUUUUUUUUUAAACAACAGAGGAUUGAGCAUCA
# B3: chr4:189940876:189940977:+|5pUTR|ENSG00000109536|unk|total|mutant (ssRNA)
# RNA: GGGAGUUCUACAGUCCGACGAUCAGUGGAACUCUGAGCCAUUCAGCGUUUGGGUGAAGACGGAGGCGGGUUCUACAGAGACGCCGGCUGUCAGGGAGUGUUUAUUUCGCGUCCGCUUCUGUUUCUCCGCGCCCCUGUGCUGCCCAACAGAGGAUUGAGCAUCA
# B4: chr4:102797111:102797208:-|3pUTR|ENSG00000109332|msi1_unk|total|mutant (ssRNA)
# RNA: GGGAGUUCUACAGUCCGACGAUCUCUGAGAAGACUUAAGUUCUUCCAGCUUUGGACAAUAACUGCUUUCCGAAACUGUAAAGCCGUUACAAGAGAACAGUUGCCCAAGACUCAGAAUUUUUAAAAAAAAAAAUGGAGCAUGUGCAACAGAGGAUUGAGCAUCA
# B5: chr19:35555165:35555334:-|CDS|ENSG00000105675|control|control|control (ssRNA)
# RNA: GGGAGUUCUACAGUCCGACGAUCGGCCGUCACGGGGGAUGGUGUGAAUGACUCCCCAGCUCUGAAGAAGGCAGACAUCGGAGUAGCCAUGGGCAUCGCUGGCUCAGAUGCUGCCAAAAAUGCAGCUGACAUGAUCCUGCUGGACAACAGAGGAUUGAGCAUCA
# B6: chr9:135932998:135933099:-|3pUTR|ENSG00000130560|unk|total|mutant (ssRNA)
# RNA: GGGAGUUCUACAGUCCGACGAUCGCUGCUUGAAUUGCCGUGCCGACAUUUGCUUGGAGAGUCCACUUGUUAUUUGACGGAGGCCGGUUUCAACCCAGAGUUAAUGUCAAGCAUGCUAAUUUAACCCGUCACUCACAGAUGACUCAACAGAGGAUUGAGCAUCA
# Molecular target: MSI1 full-length (mouse, UniProt Q61474 1-362)
# Test: nsRBNS (natural sequence RNA bind-n-seq); RBNS binding buffer (assumed for nsRBNS): 25 mM Tris pH 7.5, 150 mM KCl, 3 mM MgCl2, 0.01% Triton X-100, 500 ug/ml BSA, 20 U/ml SUPERase-In, 4 C; UNK is unkempt and MSI1 is Musashi-1; names of the RNAs are library labels; protein concentration not given here; high values mean tight binding
# Sequence of UniProt Q61474 (Q61474 whole entry): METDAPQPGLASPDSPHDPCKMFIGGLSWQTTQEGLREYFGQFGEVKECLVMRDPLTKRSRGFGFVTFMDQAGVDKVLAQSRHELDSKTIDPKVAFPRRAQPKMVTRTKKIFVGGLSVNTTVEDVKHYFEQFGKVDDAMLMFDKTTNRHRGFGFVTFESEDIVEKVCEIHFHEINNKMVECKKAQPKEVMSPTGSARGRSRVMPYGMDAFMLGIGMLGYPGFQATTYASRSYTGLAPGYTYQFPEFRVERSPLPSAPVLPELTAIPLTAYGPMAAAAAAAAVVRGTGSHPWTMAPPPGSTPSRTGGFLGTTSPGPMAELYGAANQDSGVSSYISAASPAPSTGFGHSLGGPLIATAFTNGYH
row,Binder,binding signal [enrichment R]
1,B1,0.32
2,B2,0.295
3,B3,0.536
4,B4,0.232
5,B5,0.465
6,B6,0.28
